Measured values reported in the supplement of paper PMC8728848.
Some of the results follow.

Columns and labels:
Test in all cases: glycan array binding signal (z-score within array); higher = stronger binding
Details in all cases: glycan notation: IUPAC condensed, linker removed
[1] = target: Neu5Ac(a2-3)Gal(b1-4)GlcNAc(b1-2)[Neu5Ac(a2-3)Gal(b1-4)GlcNAc(b1-4)]Man(a1-3)[GlcNAc(b1-4)][Neu5Ac(a2-3)Gal(b1-4)GlcNAc(b1-2)[Neu5Ac(a2-3)Gal(b1-4)GlcNAc(b1-6)]Man(a1-6)]Man(b1-4)GlcNAc(b1-4)GlcNAc
How it was run: (§1)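 Columns mapping to the same glycan were averaged after glycan names were converted to IUPAC-condensed notation. The data come from 3228 arrays in the Consortium for Functional Glycomics database, limited to those with an available protein sequence. Binding is reported as a within-array Z-score averaged across arrays of one protein sequence and across linkers.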

[2] = target: Neu5Ac(a2-3)Gal(b1-4)GlcNAc(b1-2)[Neu5Ac(a2-3)Gal(b1-4)GlcNAc(b1-4)]Man(a1-3)[GlcNAc(b1-4)][Neu5Ac(a2-3)Gal(b1-4)GlcNAc(b1-4)Man(a1-6)]Man(b1-4)GlcNAc(b1-4)GlcNAc
How it was run: as §1

[3] = target: Neu5Ac(a2-3)Gal(b1-4)GlcNAc(b1-2)[Neu5Ac(a2-3)Gal(b1-4)GlcNAc(b1-6)]Man(a1-6)[Neu5Ac(a2-3)Gal(b1-4)GlcNAc(b1-2)Man(a1-3)]Man(b1-4)GlcNAc(b1-4)GlcNAc
How it was run: as §1

[4] = target: Neu5Ac(a2-3)Gal(b1-4)GlcNAc(b1-2)[Neu5Ac(a2-3)Gal(b1-4)GlcNAc(b1-6)]Man(a1-6)[Neu5Ac(a2-3)Gal(b1-4)GlcNAc(b1-2)Man(a1-3)][GlcNAc(b1-4)]Man(b1-4)GlcNAc(b1-4)GlcNAc
How it was run: as §1

[5] = target: Neu5Ac(a2-3)Gal(b1-4)GlcNAc(b1-3)Gal
How it was run: as §1

[6] = target: Neu5Ac(a2-3)Gal(b1-4)GlcNAc(b1-3)Gal(b1-3)GlcNAc
How it was run: as §1

[7] = target: Neu5Ac(a2-3)Gal(b1-4)GlcNAc(b1-3)Gal(b1-4)GlcNAc
How it was run: as §1

[8] = target: Neu5Ac(a2-3)Gal(b1-4)GlcNAc(b1-3)Gal(b1-4)GlcNAc(b1-2)Man(a1-3)[Neu5Ac(a2-3)Gal(b1-4)GlcNAc(b1-3)Gal(b1-4)GlcNAc(b1-2)Man(a1-6)]Man(b1-4)GlcNAc(b1-4)GlcNAc
How it was run: as §1

[9] = target: Neu5Ac(a2-3)Gal(b1-4)GlcNAc(b1-3)Gal(b1-4)GlcNAc(b1-3)Gal(b1-4)GlcNAc
How it was run: as §1

[10] = target: Neu5Ac(a2-3)Gal(b1-4)GlcNAc(b1-3)Gal(b1-4)GlcNAc(b1-3)Gal(b1-4)GlcNAc(b1-2)Man(a1-3)[Neu5Ac(a2-3)Gal(b1-4)GlcNAc(b1-3)Gal(b1-4)GlcNAc(b1-3)Gal(b1-4)GlcNAc(b1-2)Man(a1-6)]GalNAc
How it was run: as §1

[11] = target: Neu5Ac(a2-3)Gal(b1-4)GlcNAc(b1-3)Gal(b1-4)GlcNAc(b1-3)GalNAc
How it was run: as §1

[12] = target: Neu5Ac(a2-3)Gal(b1-4)GlcNAc(b1-3)Gal(b1-4)GlcNAc(b1-3)[Neu5Ac(a2-3)Gal(b1-4)GlcNAc(b1-3)Gal(b1-4)GlcNAc(b1-6)]GalNAc
How it was run: as §1

[13] = target: Neu5Ac(a2-3)Gal(b1-4)GlcNAc(b1-3)Gal(b1-4)GlcNAc(b1-6)[Gal(b1-3)]GalNAc
How it was run: as §1

[14] = target: Neu5Ac(a2-3)Gal(b1-4)GlcNAc(b1-3)Gal(b1-4)[Fuc(a1-3)]GlcNAc
How it was run: as §1

[15] = target: Neu5Ac(a2-3)Gal(b1-4)GlcNAc(b1-3)GalNAc
How it was run: as §1

[16] = target: Neu5Ac(a2-3)Gal(b1-4)GlcNAc(b1-3)[Neu5Ac(a2-3)Gal(b1-4)GlcNAc(b1-6)]GalNAc
How it was run: as §1

[17] = target: Neu5Ac(a2-3)Gal(b1-4)GlcNAc(b1-6)GalNAc
How it was run: as §1

[18] = target: Neu5Ac(a2-3)Gal(b1-4)GlcNAc(b1-6)[Gal(b1-3)]GalNAc
How it was run: as §1

[19] = target: Neu5Ac(a2-3)Gal(b1-4)GlcNAc(b1-6)[Neu5Ac(a2-3)Gal(b1-3)]GalNAc
How it was run: as §1

[20] = target: Neu5Ac(a2-3)Gal(b1-4)GlcNAc6S
How it was run: as §1

[21] = target: Neu5Ac(a2-3)Gal(b1-4)[Fuc(a1-3)]GlcNAc
How it was run: as §1

[22] = target: Neu5Ac(a2-3)Gal(b1-4)[Fuc(a1-3)]GlcNAc(b1-2)Man
How it was run: as §1

[23] = target: Neu5Ac(a2-3)Gal(b1-4)[Fuc(a1-3)]GlcNAc(b1-3)Gal
How it was run: as §1

[24] = target: Neu5Ac(a2-3)Gal(b1-4)[Fuc(a1-3)]GlcNAc(b1-3)Gal(b1-4)GlcNAc
How it was run: as §1

[25] = target: Neu5Ac(a2-3)Gal(b1-4)[Fuc(a1-3)]GlcNAc(b1-3)Gal(b1-4)[Fuc(a1-3)]GlcNAc(b1-3)Gal(b1-4)[Fuc(a1-3)]GlcNAc
How it was run: as §1

[26] = target: Neu5Ac(a2-3)Gal(b1-4)[Fuc(a1-3)]GlcNAc(b1-3)GalNAc
How it was run: as §1

[27] = target: Neu5Ac(a2-3)Gal(b1-4)[Fuc(a1-3)]GlcNAc(b1-6)[Gal(b1-3)]GalNAc
How it was run: as §1

[28] = target: Neu5Ac(a2-3)Gal(b1-4)[Fuc(a1-3)]GlcNAc(b1-6)[Neu5Ac(a2-3)Gal(b1-3)]GalNAc
How it was run: as §1

[29] = target: Neu5Ac(a2-3)Gal(b1-4)[Fuc(a1-3)]GlcNAc6S
How it was run: as §1

[30] = target: Neu5Ac(a2-3)Gal6S(b1-4)GlcNAc
How it was run: as §1

[31] = target: Neu5Ac(a2-3)Gal6S(b1-4)[Fuc(a1-3)]GlcNAc
How it was run: as §1

[32] = target: Neu5Ac(a2-3)GalNAc
How it was run: as §1

[33] = target: Neu5Ac(a2-3)GalNAc(b1-4)GlcNAc
How it was run: as §1

[34] = target: Neu5Ac(a2-3)[GalNAc(b1-4)]Gal(b1-4)Glc
How it was run: as §1

[35] = target: Neu5Ac(a2-3)[GalNAc(b1-4)]Gal(b1-4)GlcNAc
How it was run: as §1

[36] = target: Neu5Ac(a2-3)[GalNAc(b1-4)]Gal(b1-4)GlcNAc(b1-3)GalNAc
How it was run: as §1

[37] = target: Neu5Ac(a2-3)[Neu5Ac(a2-6)]GalNAc
How it was run: as §1

[38] = target: Neu5Ac(a2-6)Gal
How it was run: as §1

[39] = target: Neu5Ac(a2-6)Gal(b1-3)GlcNAc(b1-3)[Gal(b1-4)GlcNAc(b1-6)]Gal(b1-4)Glc
How it was run: as §1

[40] = target: Neu5Ac(a2-6)Gal(b1-4)Glc
How it was run: as §1

[41] = target: Neu5Ac(a2-6)Gal(b1-4)GlcNAc
How it was run: as §1

[42] = target: Neu5Ac(a2-6)Gal(b1-4)GlcNAc(b1-2)Man
How it was run: as §1

[43] = target: Neu5Ac(a2-6)Gal(b1-4)GlcNAc(b1-2)Man(a1-3)Man(b1-4)GlcNAc(b1-4)GlcNAc
How it was run: as §1

[44] = target: Neu5Ac(a2-6)Gal(b1-4)GlcNAc(b1-2)Man(a1-3)[Gal(b1-4)GlcNAc(b1-2)Man(a1-6)]Man(b1-4)GlcNAc(b1-4)GlcNAc
How it was run: as §1

[45] = target: Neu5Ac(a2-6)Gal(b1-4)GlcNAc(b1-2)Man(a1-3)[GlcNAc(b1-2)Man(a1-6)]Man(b1-4)GlcNAc(b1-4)GlcNAc
How it was run: as §1

B1: CFEM-SCL (Saccharomyces cerevisiae), O13547 (protein)
chain: MRATTLLSSVVSLALLSKEVLATPPACLLACVAQVGKSSSTCDSLNQVTCYCEHENSAVKKCLDSICPNNDADAAYSAFKSSCSEQNASLGD
- glycan array binding signal (z-score) [1]: -0.315
- glycan array binding signal (z-score) [2]: -0.341
- glycan array binding signal (z-score) [3]: -0.312
- glycan array binding signal (z-score) [4]: -0.274
- glycan array binding signal (z-score) [5]: -0.244
- glycan array binding signal (z-score) [6]: -0.321
- glycan array binding signal (z-score) [7]: -0.349
- glycan array binding signal (z-score) [8]: -0.019
- glycan array binding signal (z-score) [9]: -0.311
- glycan array binding signal (z-score) [10]: 0.212
- glycan array binding signal (z-score) [11]: -0.274
- glycan array binding signal (z-score) [12]: -0.155
- glycan array binding signal (z-score) [13]: 0.23
- glycan array binding signal (z-score) [14]: -0.362
- glycan array binding signal (z-score) [15]: -0.277
- glycan array binding signal (z-score) [16]: -0.31
- glycan array binding signal (z-score) [17]: -0.34
- glycan array binding signal (z-score) [18]: 0.891
- glycan array binding signal (z-score) [19]: -0.272
- glycan array binding signal (z-score) [20]: -0.32
- glycan array binding signal (z-score) [21]: -0.25
- glycan array binding signal (z-score) [22]: -0.207
- glycan array binding signal (z-score) [23]: -0.308
- glycan array binding signal (z-score) [24]: 0.144
- glycan array binding signal (z-score) [25]: -0.258
- glycan array binding signal (z-score) [26]: 1.1
- glycan array binding signal (z-score) [27]: 0.813
- glycan array binding signal (z-score) [28]: 0.492
- glycan array binding signal (z-score) [29]: -0.375
- glycan array binding signal (z-score) [30]: -0.311
- glycan array binding signal (z-score) [31]: -0.364
- glycan array binding signal (z-score) [32]: -0.32
- glycan array binding signal (z-score) [33]: -0.302
- glycan array binding signal (z-score) [34]: -0.229
- glycan array binding signal (z-score) [35]: -0.297
- glycan array binding signal (z-score) [36]: -0.189
- glycan array binding signal (z-score) [37]: -0.313
- glycan array binding signal (z-score) [38]: -0.191
- glycan array binding signal (z-score) [39]: -0.277
- glycan array binding signal (z-score) [40]: -0.298
- glycan array binding signal (z-score) [41]: -0.282
- glycan array binding signal (z-score) [42]: -0.345
- glycan array binding signal (z-score) [43]: -0.209
- glycan array binding signal (z-score) [44]: -0.318
- glycan array binding signal (z-score) [45]: -0.336
